# Laboratory results as given in PubChem BioAssay AID463173 (ICCB-Longwood Screening Facility, Harvard Medical School, 2010).
# Screen size: about 52,000 compounds; about 4,300 (8.3%) were called active. No stated cut-off is given here; in the data, active means survival mostly below about 52% (no sharp cut-off); inactive means mostly above about 56%. This is one part of the list.
# Tested on: DeltatarO mutant
# Assay: S. aureus survival, RN4220 and DeltatarO strains – OD600, teichoic acid synthesis inhibitors, primary screen (AID 463173)
# Conditions: S. aureus RN4220 wild type/DeltatarO growth, OD600, 18 h, hits give low values, screened at 18.75 µg/mL (by protocol)
row,Structure (SMILES),survival
1,c1coc(C2NCCS2)c1 (configuration not stated),inactive: 93%
2,CCOc1ccccc1NC(=O)c1cnn2c(C(F)F)cc(-c3ccccc3)nc12,active: 58%
3,COCCCNC(=O)C1CCN(c2nn3cc(-c4ccc(F)cc4)nc3s2)CC1,inactive: 76%
4,CCC(C)NC(=O)c1nn(-c2ccc(C)cc2)c(=O)n(C)c1=O (configuration not stated),inactive: 73%
5,Cc1ccc(OCC(=O)N(Cc2ccco2)Cc2ccc(C)o2)cc1,inactive: 65%
6,COc1cc2c(=O)n(CCC(=O)NCC3CCCO3)c(=O)n(CC(=O)Nc3ccc(C)c(C)c3)c2cc1OC (configuration not stated),inactive: 58%
7,CC1=C(C(=O)Nc2ccccc2)C(c2cccs2)n2nc(SCc3ccccc3F)nc2N1 (configuration not stated),inactive: 75%
8,CCOc1ccc(NC(=O)/C(C#N)=C\c2cc(C)n(C)c2C)cc1,inactive: 68%
9,Cc1ccc(C)c(NC(=O)c2cc(S(=O)(=O)N3CCCCCC3)ccc2F)c1,inactive: 102%
10,Cc1ccccc1NC(=O)CN1CCC(n2nnc3ccccc32)CC1,inactive: 95%
11,CN(C)CCN(Cc1ccco1)C(=O)c1oc2ccccc2c1NC(=O)c1ccccc1,inactive: 81%
12,Cc1ccccc1C(=O)OCc1cc(=O)n2nc(-c3cccs3)sc2n1,inactive: 117%
13,O=C(CSc1nc2ccccc2o1)c1ccc2c(c1)OCCO2,inactive: 80%
14,CCCc1nn2c(=O)cc(COC(=O)c3ccccc3NC(=O)c3ccc(Cl)cc3)nc2s1,inactive: 92%
15,COc1cc(C2c3c(-c4cc(C)ccc4O)n[nH]c3C(=O)N2CCCO)ccc1OCCC(C)C (configuration not stated),inactive: 58%
16,CCc1ccccc1Nc1cc(C(=O)NC(C)c2ccccc2)c2ccccc2n1 (configuration not stated),inactive: 86%
17,Cc1ccc(NC(=O)C(C)Sc2nc(=O)cc(N)n2-c2ccccc2)cc1 (configuration not stated),inactive: 55%
18,CCOC(=O)c1cccc(NC(=O)CCn2nc(C)c(S(=O)(=O)N3CCCCC3)c2C)c1,inactive: 108%
19,CCOc1ccc(NC(=O)CN2CCCN(Cc3cc(C)ccc3C)S2(=O)=O)cc1,inactive: 71%
20,CCOC(=O)c1ccccc1NC(=O)N1CCC(CN2CCCCC2)CC1,inactive: 83%
21,Cc1ccc2c(=O)c(C(=O)c3cccc(Cl)c3)cn(CC(=O)Nc3ccc4c(c3)OCCO4)c2n1,inactive: 80%
22,Cn1cc(S(=O)(=O)c2cccc(Cl)c2)c(=O)c2cc(F)c(N3CCN(c4ccccc4)CC3)cc21,active: 6%
23,CC(C)OC(=O)CSc1ncnc2c1cnn2-c1ccccc1,inactive: 81%

row,Structure (SMILES),survival
1,COc1ccc(CCCc2nnc(SCC(=O)Nc3ccc(OC)cc3)o2)cc1,inactive: 65%
2,O=C(Nc1cc(F)ccc1F)N1CCC(CN2CCCC2)CC1,inactive: 84%
3,CN1C(=O)Cc2cc(S(=O)(=O)CCC(=O)Nc3ccc(F)c(Cl)c3)ccc21,inactive: 87%
4,COc1ccc(-c2cc(C(F)(F)F)nc(SCC(=O)NCCc3ccccc3)n2)cc1OC,inactive: 58%
5,CCc1sc(Nc2cccc(C)c2C)nc1-c1cc2cccc(OC)c2oc1=O,inactive: 94%
6,COc1cc(OC)cc(-n2c(=O)c3sccc3n(Cc3c(C)cc(C)cc3C)c2=O)c1,inactive: 178%
7,COc1cc(CNn2cnnc2)ccc1OCC(=O)NC(C)(C)C,inactive: 69%
8,Cc1ccc(NC(=O)c2cc(S(=O)(=O)N3CCc4ccccc43)ccc2F)cc1Cl,inactive: 92%
9,CCOc1ccc(NC(=O)C2CCN(c3nnc(-n4c(C)ccc4C)s3)CC2)cc1,inactive: 90%
10,COc1ccc(NC(=O)CSc2nc3ccccc3n2Cc2cccc(OC)c2)cc1,inactive: 134%
11,COCCNC(=O)c1cccc(-n2c(C)nc3cccnc32)c1,inactive: 95%
12,Cc1nc(-c2cccnc2)sc1CCNS(=O)(=O)c1ccc(F)cc1,inactive: 75%
13,Cc1cc(S(=O)(=O)Nc2ccc(-c3ccc(N4CCCCCC4)nn3)cc2)c(C)cc1Cl,inactive: 73%
14,CCOC(=O)c1ccccc1NC(=O)c1ccncc1,inactive: 87%
15,CCN1CCN(c2ncc3c(n2)CCN(Cc2ccc(OC(C)C)cc2)C3)CC1,inactive: 81%
16,O=C(NC1CCCCC1)NC1CCN(Cc2nnnn2Cc2ccc3c(c2)OCO3)CC1,inactive: 88%
17,Cc1cccc(-c2nc(SCCCOc3ccc(Cl)c(C)c3)n3[nH]c(=O)cc3n2)c1,inactive: 72%
18,CCOC(=O)c1ccc(-c2ccc(/C=C(\C#N)C(=O)Nc3ccc(OCC)cc3)o2)cc1,inactive: 60%
19,CCc1ccc(-n2c(=O)c3cccnc3n2CC(=O)Nc2cc(F)ccc2F)cc1,inactive: 90%
20,CCOC(=O)N1CCc2c(sc(NCc3cc(OC)c(OC)cc3OC)c2C(=O)Nc2ccc(OCC)cc2)C1,inactive: 89%
21,CCN(CC)C(=O)Cn1cc(SCC(=O)Nc2ccccc2C)c2ccccc21,inactive: 74%
22,CC(C)N(C(=O)CN1CCN(Cc2ccccc2)CC1)C(C)C,inactive: 62%
23,CCc1nn2c(=O)cc(COC(=O)c3ccco3)nc2s1,inactive: 102%

row,Structure (SMILES),survival
1,CCOC(=O)C1CCN(S(=O)(=O)c2csc(C(N)=O)c2)CC1,inactive: 70%
2,Cc1ccc(-c2cn3c(n2)sc2cc(C(=O)NC(C)C45CC6CC(CC(C6)C4)C5)ccc23)cc1 (configuration not stated),inactive: 54%
3,CCCC(=O)Nc1ccc2c(C)cc(C)nc2n1,inactive: 99%
4,COc1ccc(N2CC(NC(=O)c3ccc(Br)o3)CC2=O)cc1 (configuration not stated),inactive: 81%
5,COC(=O)c1nnn(-c2cccc(C)c2)c1C(=O)OC,inactive: 87%
6,COc1ccc(C2(CNC(=O)C(=O)Nc3ccc(F)cc3)CCCC2)cc1OC,inactive: 65%
7,COc1ccc(Cl)cc1-n1nnc(-c2nsc(NC(=O)c3ccccc3Cl)n2)c1C,active: 23%
8,Cc1ccc(NC(=O)C2CCC(CNS(=O)(=O)c3csc(C(N)=O)c3)CC2)cc1Cl (configuration not stated),inactive: 77%
9,CCCSc1nc2sc3c(c2c(=O)n1Cc1ccccc1)CC(C)(CC)OC3 (configuration not stated),active: 14%
10,CCc1ccccc1NC(=O)C(=O)NCC(c1cccnc1)N1CCN(c2ccccc2F)CC1 (configuration not stated),inactive: 57%
11,CCc1nn(Cc2cc(C)ccc2C)c(=O)c2cc3cc(C)ccc3n12,inactive: 95%
12,CC(C)(C)C(=O)Cn1c(C(=O)O)cc2ccccc21,inactive: 98%
13,CCOC(=O)c1c(S(=O)(=O)NCC(=O)Nc2cc(C)ccc2C)c(C)n(C)c1C,inactive: 84%
14,Cc1ccc(NS(=O)(=O)c2ccc3c(c2)CCCN3C(=O)C2CCC2)c(C)c1,inactive: 85%
15,N#Cc1cc(O)c(-n2nnc3ccccc32)cc1C#N,inactive: 101%
16,O=C(N/N=C1/SCC(=O)N1Cc1ccco1)c1ccccc1F,inactive: 105%
17,COc1ccccc1N1CCN(CCCNC(=O)c2cnn(-c3ccccc3)c2C2CCN(C(=O)OC(C)(C)C)CC2)CC1,inactive: 85%
18,Nc1ccnn1C1CCCC1,inactive: 94%
19,CC(C)NCC(O)COc1ccccc1 (configuration not stated),inactive: 109%
20,Cc1ccccc1C(=O)Nc1nc(-c2nnn(-c3ccc(C(C)C)cc3)c2C)ns1,inactive: 88%
21,O=C(Cn1ncc2c([nH]c3ccccc32)c1=O)NCC1CCN(Cc2ccc(F)cc2)CC1,inactive: 92%
22,CCOc1ccccc1CNC(=O)C1CCN(S(=O)(=O)c2ccc3c(ccn3C)c2)CC1,inactive: 96%
23,CCOc1ccc(C(=O)NCCS(=O)(=O)N2CCN(c3ccccc3F)CC2)cc1OCC,inactive: 73%

row,Structure (SMILES),survival
1,COc1ccc(CN2CCN(c3ncnc4sc5c(c34)CC(C)CC5)CC2)cc1F (configuration not stated),inactive: 83%
2,C/C=C/C(=O)N1c2ccccc2C(C)=CC1(C)C,inactive: 110%
3,O=C(NCc1cccc(F)c1)C1CC(O)CN1C(=O)Nc1ccccc1 (configuration not stated),inactive: 86%
4,Cc1ccc(Cl)cc1N1CCN(S(=O)(=O)c2ccc3c(c2)CCCN3C(=O)C2CCC2)CC1,inactive: 69%
5,CCCCCn1c(-c2ccc(OC)c(OC)c2)nc2ccccc21,active: 1%
6,O=C(NCCc1ccccc1)c1cc(Sc2cccc(Cl)c2)nc2ccccc12,inactive: 88%
7,Cc1nn(CC(=O)Nc2ccc3c(c2)oc2ccccc23)c(=O)c2ccccc12,inactive: 92%
8,CCCn1nnnc1SCC(=O)c1ccccc1,inactive: 112%
9,COc1ccc(NS(=O)(=O)c2ccc3[nH]c4c(c3c2)CCCC4)cc1Cl,inactive: 76%
10,Cc1ccc(CN2C(=O)c3oc4ccc(C)cc4c(=O)c3C2c2ccc(O)cc2)cc1 (configuration not stated),inactive: 75%
11,COc1cc(OC)c(NC(=O)Cn2c(=O)oc3cc(S(=O)(=O)N4CCCC4)ccc32)cc1Cl,inactive: 78%
12,Cn1ccnc1SCC(=O)Nc1ccccc1,inactive: 92%
13,Cc1ccc(C)n1-c1nnc(N2CCCC(C(=O)NCc3cccc(Cl)c3)C2)s1 (configuration not stated),inactive: 66%
14,N#CC1=C(N)SC(N)=C(C#N)C1c1ccc(O)cc1,inactive: 82%
15,CCc1ccc(-n2c(Cc3ccccc3)nnc2SCc2nc(-c3cccs3)no2)cc1,inactive: 83%
16,Cc1ccc(/C=C/c2onc(C)c2S(=O)(=O)N2CCC(C(=O)NCC(C)c3ccccc3)CC2)cc1 (configuration not stated),inactive: 77%
17,CC1=C(C(=O)NCc2ccc(Cl)cc2)C2(CCCCC2)OC1=O,inactive: 76%
18,Cc1nc2ccn(Cc3cccs3)c(=O)c2cc1C(=O)Nc1ccccc1,inactive: 84%
19,CCn1cc(S(=O)(=O)c2cccc(Cl)c2)c(=O)c2cc(F)c(N3CCN(c4ccccc4)CC3)cc21,inactive: 79%
20,COc1cccc2c(=O)c(C(=O)NCc3cccs3)c[nH]c12,inactive: 85%
21,CCN1C(=O)c2ccccc2Sc2ccc(C(=O)NCCCN(CC(C)C)CC(C)C)cc21,inactive: 86%
22,O=C(Cn1c(C(=O)NCc2ccco2)cc2sccc21)c1ccccc1,inactive: 92%
23,CN1C(=O)c2ccccc2Sc2ccc(NC(=O)c3ccccc3F)cc21,inactive: 101%
